Hit rate of the full screen: of about 310,000 compounds, about 14,000 (4.5%) showed an effect of 50% or more. Effects have a minus sign here. The list shows a part of the results.
biological target: human ether-à-go-go-related gene (hERG) potassium channel (human, UniProt Q12809); assay: primary screen, population patch clamp on CHO cells stably expressing hERG
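Note: peak tail current of the secondary pulse compared with the same well before compound.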

human ether-à-go-go-related gene (hERG) potassium channel, sequence (Q12809 whole entry, looked up): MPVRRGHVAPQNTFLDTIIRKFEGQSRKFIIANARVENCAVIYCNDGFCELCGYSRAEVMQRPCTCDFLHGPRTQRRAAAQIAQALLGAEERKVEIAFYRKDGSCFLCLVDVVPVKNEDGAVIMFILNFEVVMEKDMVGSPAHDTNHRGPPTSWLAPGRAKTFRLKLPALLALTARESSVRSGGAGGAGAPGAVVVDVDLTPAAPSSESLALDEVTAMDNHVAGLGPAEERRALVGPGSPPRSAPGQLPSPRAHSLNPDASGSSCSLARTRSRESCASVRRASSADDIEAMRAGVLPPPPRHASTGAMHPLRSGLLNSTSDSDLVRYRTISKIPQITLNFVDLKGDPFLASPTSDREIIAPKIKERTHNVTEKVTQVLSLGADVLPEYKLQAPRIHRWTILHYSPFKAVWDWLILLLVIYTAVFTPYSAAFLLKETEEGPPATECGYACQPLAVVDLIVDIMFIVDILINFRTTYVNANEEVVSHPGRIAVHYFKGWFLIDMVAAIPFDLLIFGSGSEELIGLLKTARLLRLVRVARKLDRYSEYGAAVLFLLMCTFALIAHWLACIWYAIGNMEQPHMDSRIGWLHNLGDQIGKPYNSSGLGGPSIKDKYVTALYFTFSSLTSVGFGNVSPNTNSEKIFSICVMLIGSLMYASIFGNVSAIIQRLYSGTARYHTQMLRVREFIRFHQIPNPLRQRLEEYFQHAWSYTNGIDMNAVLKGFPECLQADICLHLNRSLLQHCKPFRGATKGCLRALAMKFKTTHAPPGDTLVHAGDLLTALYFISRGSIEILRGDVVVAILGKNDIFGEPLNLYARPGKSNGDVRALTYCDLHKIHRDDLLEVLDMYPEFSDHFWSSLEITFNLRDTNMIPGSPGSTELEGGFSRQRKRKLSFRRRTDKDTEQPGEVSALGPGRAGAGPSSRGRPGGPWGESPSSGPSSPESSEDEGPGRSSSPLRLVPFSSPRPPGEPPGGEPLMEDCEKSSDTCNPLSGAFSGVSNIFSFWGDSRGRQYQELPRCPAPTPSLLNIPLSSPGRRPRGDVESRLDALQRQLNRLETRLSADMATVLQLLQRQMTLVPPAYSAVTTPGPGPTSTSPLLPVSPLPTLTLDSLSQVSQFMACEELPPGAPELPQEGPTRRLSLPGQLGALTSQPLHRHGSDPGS

Structure (SMILES) | hERG current change (%, negative = inhibition) at 10uM [%]
O=C(CN1C(=O)S/C(=C\C=C\c2ccccc2)C1=O)N1CCCCC1 | 10.8
COc1ccc(N2C(=O)CC(N(Cc3ccc(S(N)(=O)=O)cc3)C(C)=O)C2=O)cc1 (stereo not shown) | 7.69
COc1ccc(CN(C)CC(=O)NC(=O)Nc2ccccc2F)cc1 | 2.87
CCC1CCCCN1CCCNC(=O)CCNC(=O)Cn1cnc2ccccc2c1=O (stereo not shown) | -0.683
CC/C(O)=C1\C(=O)CCCC1=NCc1nc2ccccc2[nH]1 | 1
COc1ccc(NC(=O)c2cccc(OC(F)F)c2)cc1Cl | -22.2
CN(C(=O)CSc1nc(-c2ccc(C(C)(C)C)cc2)c(C#N)c(=O)[nH]1)C1CCCCC1 | 14.9
COc1ccc(C(C(=O)NC2CCCCC2)N(Cc2ccco2)C(=O)c2ccccn2)c(OC)c1 (stereo not shown) | -4.76
CC(C)NC(=O)c1cc(-c2ccc(Br)cc2)on1 | -10.1
c1ccc(-c2nnc3sc(-c4csc5c4CCCC5)nn23)cc1 | 5.9
Cc1ccc(C(c2nnnn2CC2CCCO2)N2CCN(Cc3ccccc3)CC2)cc1 (stereo not shown) | -74.9
Cc1ccc(C)c(OCCC(=O)OCC(=O)NC2CCS(=O)(=O)C2)c1 (stereo not shown) | -3.37
CCc1cccc(CC)c1NC(=S)NCCc1ccc(O)c(O)c1 | -11.3
Cc1ccc(-c2c3c(=O)n(C)c(=O)n(C)c3cn2CCCN2CCOCC2)cc1 | 10.5
Cc1ccc(C(=O)OC(C)C(=O)Nc2ccc(S(N)(=O)=O)cc2)cc1S(=O)(=O)N1CCOCC1 (stereo not shown) | -2.9
COc1ccc(C(=O)c2ccc(N3CCN(C4CC(=O)NC4=O)CC3)cc2)cc1F (stereo not shown) | -43.2
O=C(O)c1cccc(C(=O)c2cccc3ccccc23)c1 | 0.874
Cc1c(C(=O)O)c2cc(O)ccc2n1-c1ccccc1 | -6.65
CC1CCCCN1C(=O)CSc1nnc(-c2cccnc2)o1 (stereo not shown) | 8.03
CC(=O)c1cn(CC(=O)NCCc2c[nH]c3ccccc23)c2ccccc12 | -0.922
COc1cc(OC)cc(C(=O)n2nc(C)cc2C)c1 | 3.24
CN(C(=O)c1ccc([N+](=O)[O-])cc1)c1ccccc1C(=O)NCc1ccccc1 | -7.6

Structure (SMILES) | hERG current change (%, negative = inhibition) at 10uM [%]
O=C1c2ccccc2CN1C(CO)c1ccccc1 (stereo not shown) | 16.9
Cc1cc(=S)cc(C)n1CCCn1ccnc1 | -1.53
CC1(C)C(=O)Nc2ccccc2N1C(=O)COc1ncnc2ccccc12 | -1.28
COc1cc(OC)c2c(c1)C(=O)c1cc(OC)cc(OC)c1C2=O | 10.9
Cc1cc(C(=O)CN2CCCCC2)c(C)n1-c1ccc(F)cc1 | -6.55
O=C(O)CSCc1ccc(C(=O)O)o1 | 27.2
CC(=O)N1CCN(c2ccc(NC(=O)c3ccc(F)cc3)cc2)CC1 | -57.7
Cc1ccc2nc(/C(C#N)=C\c3ccc(N4CCCCC4)c([N+](=O)[O-])c3)[nH]c2c1 | 4.79
Fc1ccc(NC(=S)NNc2ncc(C(F)(F)F)cc2Cl)c(F)c1 | -1.49
CCCCCOC(=O)C(C)c1c(C)[nH]c(=S)[nH]c1=O (stereo not shown) | 5.91
O=C(Nc1nnc(Cc2ccc([N+](=O)[O-])cc2)s1)c1ccc2c(c1)OCO2 | 3.6
CN(C)C(=O)c1cnc(-c2ccccc2)nc1-c1ccccc1 | 11.5
Cc1cc(C(=O)Cn2nc(C(=O)O)c3ccccc3c2=O)c(C)n1C1CC1 | -13.6
CC(NC(=O)c1cccc(Cl)c1)C1CC2CCC1C2 (stereo not shown) | -0.901
CC(=O)Nc1ccc(C2NC(=S)N(c3ccccc3C(F)(F)F)C(C)=C2C(=O)N2CCOCC2)cc1 (stereo not shown) | 12.9
Cc1cc(Cl)c(S(=O)(=O)Nc2ccc3c(c2)OCCO3)cc1OCC(N)=O | -3.59
CCOc1ccc(C2N(c3ccc(F)cc3)C(=O)C3CCCN32)cc1OC (stereo not shown) | -10.8
O=C1CCC(C(=O)N2CCCCO2)CN1Cc1ccc(Cl)cc1 (stereo not shown) | -2.61
CCOC(=O)c1ccc(NC2c3ccccc3C(=O)N2c2ccccn2)cc1 (stereo not shown) | 9.93
CCOC(=O)C1=C(N)c2ccccc2CC1C1CCCC1 (stereo not shown) | 15.9
Cn1nnc(NC(=S)NC(=O)c2cccc3c(Cl)cccc23)n1 | 26.8
Cc1ccc(-c2cc(C(=O)Nc3cc(C)on3)c3ccccc3n2)c(C)c1 | 5.46

Structure (SMILES) | hERG current change (%, negative = inhibition) at 10uM [%]
O=C(c1ccccc1)c1nc[nH]c1C(=O)Nc1ccccc1 | 0.367
Cc1cccc(N2CCN(C(=O)c3cc4n(n3)C(C(F)(F)F)CC(c3ccco3)N4)CC2)c1C (stereo not shown) | 25.4
Cc1ccc(Sc2cc(N3CCOCC3)nc(-c3ccccc3)n2)cc1 | -7.23
Cl.NC(N)=NC(N)=NCCc1ccccc1 | 17
CCCN(CC1CCCO1)C(=O)CCc1nnc(-c2cc(C)on2)o1 (stereo not shown) | 15.6
CCCNC(=O)c1c(N)n(-c2cccc(OC)c2)c2nc3ccccc3nc12 | -5.21
CCOC(=O)CSc1nnc(-c2ccc3ncccc3c2)n1C | -7.33
Cc1sc2nc(-c3ccccc3)oc(=O)c2c1C | 9.1
C=CCn1c(C(CCC(C)C)CC(C)(C)O)n[nH]c1=S (stereo not shown) | 21.2
COc1ccc(CCNC(=O)c2ccccc2C(=O)NCCc2ccc(OC)cc2)cc1 | -12
COc1ccc(C(=O)Nc2ccc(NC(=O)C3CC3)nc2)cc1 | 12.1
O=C(NC1CCCc2ccccc21)C1CCN(c2nnc(-n3cccc3)s2)CC1 (stereo not shown) | -6.66
O=C(CNS(=O)(=O)c1ccc(Br)cc1)N1CCN(c2ccc(F)cc2)CC1 | -56.5
CC(C)Cn1c(=S)[nH]c2cc(C(=O)O)ccc2c1=O | 7.25
c1ccc(Cn2cc(CN3CCCO3)c(-c3ccc4c(c3)OCO4)n2)cc1 | 15.9
CC1CC(C)CN(C(=O)Cn2c(=O)c3cccn3c3cccnc32)C1 (stereo not shown) | -4.56
Cc1ccc(Cl)cc1NC(=O)COC(=O)C12CC3CC(CC(C3)C1)C2 | -5.9
Cc1cccc(N(CC(=O)Nc2c(C)n(C)n(-c3ccccc3)c2=O)S(C)(=O)=O)c1C | -0.4
COc1ccc(-n2c(-c3ccco3)nc3c(cnn3-c3ccc(C)cc3)c2=O)cc1 | 1.88
Cc1cc(=O)[nH]c(N/N=C/c2ccc(O)c(O)c2)n1 | 17.5
Cc1ccc2c(c1)N(CC(=O)N1CCCc3ccccc31)C(=O)CO2 | -8.16
CN1CCN(C2Cc3cc(F)ccc3Sc3ccc(Cl)cc32)CC1.O=C(O)/C=C\C(=O)O (stereo not shown) | -44.8

Structure (SMILES) | hERG current change (%, negative = inhibition) at 10uM [%]
CCOc1ccc(C(=S)N2CCCC2)c(OCC)c1 | 6.17
Cc1ccc(Nc2c(-c3ccc(C)o3)nc3cnccn23)cc1 | 4.98
O=C1COc2ccc(C(=O)COC(=O)c3cc(S(=O)(=O)N4CCOCC4)ccc3F)cc2N1 | -13.3
CCCCSc1nnc(NC(=O)CCc2ccccc2)s1 | -0.77
COc1ccc(CNC(=O)COC(=O)CCOc2ccc(C)cc2)cc1 | 19
O=c1cc(-c2ccccc2O)nc(-c2ccccc2)[nH]1 | 23.7
COc1ccc(C2CC(C(F)(F)F)n3nc(C(=O)NCCN4CCOCC4)cc3N2)cc1 (stereo not shown) | -11.5
O=C(NCc1ccco1)c1sc2cc(Cl)ccc2c1Cl | 14.5
Cl.NCCCCNCCCN | 16.4
C/C(O)=C(\C#N)c1nc2ccccc2[nH]1 | -1.58
Cc1ccccc1NC(=S)NC12CN3CN(CN(C3)C1)C2 | 13.4
CCCCN(C(=O)c1ccc2c(c1)OCCO2)c1c(N)n(CC(C)C)c(=O)[nH]c1=O | -11.7
Cc1ccccc1NC(=O)c1sc(Cl)nc1C | 9.95
NC(=S)Nc1cc(Cl)ccc1Cl | -7.01
O=C1NC(=Nc2ccccc2Cl)S/C1=C\c1cccc([N+](=O)[O-])c1 | -0.316
COc1cc(C(=O)Nc2cccc(-c3nc4cc(C)ccc4o3)c2C)cc(OC)c1OC | 9.04
CSc1nc2ccccc2nc1N(C)S(=O)(=O)c1ccc(C)cc1 | 17.4
CC1(C)NC(=O)N(CCCC(=O)Nc2ccc(C(F)(F)F)cc2)C1=O | -16.9
CC(C)OC(=O)c1c(NC(=O)c2cnn3c2NC(c2ccccc2)CC3C(F)(F)F)sc2c1CCCC2 (stereo not shown) | 0.121
CC(=O)Oc1ccc(C(=O)[C@H]2[C@H]3C(=O)N(c4ccccc4)C(=O)[C@H]3[C@@H]3C=CC=NN32)cc1 | 8.93
COC(=O)C(O)(CC(=O)c1ccc(OC)cc1)C(F)(F)F (stereo not shown) | 9.08
O=C(CN(C(=O)Cn1nnc(-c2ccc(F)cc2)n1)c1cnc2ccccc2c1)NCC1CCCO1 (stereo not shown) | -24.9

Source: PMC4336329 (PLoS ONE, 2015)
